Measurements taken from patent US20180318417A1 (COMPASS THERAPEUTICS, published 2018).

Target: T1, PID-130 (trispecific Her2/CD3/PD-1 MIAC; Blinatumomab_CD3 aglycosylated IgG1 with Trastuzumab scFv at the …)
T1 construct: also called α-Her2/α-CD3/α-PD-1 MIAC; PID130 [Her2/CD3/PD-1]
Experiment: ForteBio Octet BLI; antigen-Fc on Protein A sensor, 100 nM construct
Protocol: Antigen binding of MIAC constructs were analyzed using ForteBio Octet. […] All antigens were reconstituted in PBS at the final concentration of 0.25 ug/ul. […] Association proceeded by dipping sensors in 100 nM MIAC constructs for 5 minutes and disassociation occurred in blank kinetics buffer for 5 minutes. For CD3 epsilon binding, antigen was immobilized on Ni-NTA sensors; association was performed in 50 nM MIAC constructs. Binding data were analyzed using ForteBio Data Analysis 9.0 software.

B1: Recombinant human PD-1 Fc fusion protein (Sino Biological) (Fc fusion)
chain: not shown
notes: not shown: Fc part of the bought fusion protein
A Kd of 0.37 nM was found for B1 in this work.
